Experimental data reported in publication PMC12820563, “FoxP3 forms a head-to-head dimer in vivo and stabilizes its multimerization on adjacent microsatellites”.
The other results are listed elsewhere or left out.

Biological target: T1, MBP-FoxP1dN (Mus musculus, UniProt P58462 326-579)
T1 sequence: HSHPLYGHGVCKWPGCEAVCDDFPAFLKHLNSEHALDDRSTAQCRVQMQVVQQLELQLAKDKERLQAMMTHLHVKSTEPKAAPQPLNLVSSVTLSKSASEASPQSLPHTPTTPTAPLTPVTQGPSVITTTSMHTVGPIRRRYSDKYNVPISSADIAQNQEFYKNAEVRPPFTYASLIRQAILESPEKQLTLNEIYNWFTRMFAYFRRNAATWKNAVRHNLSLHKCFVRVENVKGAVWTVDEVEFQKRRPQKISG
Test: PD-seq (MBP pull-down with sequencing); 20 mM Tris-HCl pH 7.5, 100 mM NaCl, 1.5 mM MgCl2, 0.4 uM protein, 0.1 uM dsDNA library, 30 min, room temperature, amylose pull-down; high values mean tight binding
Conditions: protein: recombinant; tags: His6-MBP; chain copies: 2; dsDNA, one strand shown
Method in brief: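 Binding is given as reads-per-million enrichment, pull-down over input, with replicates pooled. The bait was an N-terminus-lacking mouse FoxP3 or FoxP1 fragment with a His6-MBP tag, expressed in E. coli and used at 0.4 µM with 0.1 µM Klenow-filled degenerate double-stranded DNA library for 30 min at room temperature in Tris pH 7.5 buffer with NaCl and MgCl2. Amylose resin pull-down with three washes was followed by proteinase K release, PCR barcoding and Illumina sequencing.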

Row | Sequence | binding signal
1 | GATGATTGTTCTCCCAGCTGATGAATTATGAAGCTCGAGTAAACAAATTTTCCTAATCTTTCTGTTCAAGCGCCATCTAC | 0.829 RPM ratio (pull-down/input)
2 | GATGATTGTTCTCCCAGCTGATGAATTCTAAATCTCGAGTAAACAAATTTTCCTAATCTTTCTGTTCAAGCGCCATCTAC | 0.882 RPM ratio (pull-down/input)
3 | GATGATTGTTCTCCCAGCTGATGAATTGAGAGTTTCGAGTAAACAAATTTTCCTAATCTTTCTGTTCAAGCGCCATCTAC | 0.911 RPM ratio (pull-down/input)
4 | GATGATTGTTCTCCCAGCTGATGAATTAACTCTATCGAGTAAACAAATTTTCCTAATCTTTCTGTTCAAGCGCCATCTAC | 0.964 RPM ratio (pull-down/input)
5 | GATGATTGTTCTCCCAGCTGATGAATTTGGCCTGTCGAGTAAACAAATTTTCCTAATCTTTCTGTTCAAGCGCCATCTAC | 0.807 RPM ratio (pull-down/input)
6 | GATGATTGTTCTCCCAGCTGATGAATTCATGCGATCGAGTAAACAAATTTTCCTAATCTTTCTGTTCAAGCGCCATCTAC | 0.917 RPM ratio (pull-down/input)
7 | GATGATTGTTCTCCCAGCTGATGAATTCAGCGCTTCGAGTAAACAAATTTTCCTAATCTTTCTGTTCAAGCGCCATCTAC | 0.896 RPM ratio (pull-down/input)
8 | GATGATTGTTCTCCCAGCTGATGAATTGAACCCTTCGAGTAAACAAATTTTCCTAATCTTTCTGTTCAAGCGCCATCTAC | 0.799 RPM ratio (pull-down/input)
9 | GATGATTGTTCTCCCAGCTGATGAATTGCGGTATTCGAGTAAACAAATTTTCCTAATCTTTCTGTTCAAGCGCCATCTAC | 1.11 RPM ratio (pull-down/input)
10 | GATGATTGTTCTCCCAGCTGATGAATTGATTGAATCGAGTAAACAAATTTTCCTAATCTTTCTGTTCAAGCGCCATCTAC | 1.08 RPM ratio (pull-down/input)
11 | GATGATTGTTCTCCCAGCTGATGAATTCTTATATTCGAGTAAACAAATTTTCCTAATCTTTCTGTTCAAGCGCCATCTAC | 1.05 RPM ratio (pull-down/input)
12 | GATGATTGTTCTCCCAGCTGATGAATTAGAAAGCTCGAGTAAACAAATTTTCCTAATCTTTCTGTTCAAGCGCCATCTAC | 0.893 RPM ratio (pull-down/input)
13 | GATGATTGTTCTCCCAGCTGATGAATTGCCTGAGTCGAGTAAACAAATTTTCCTAATCTTTCTGTTCAAGCGCCATCTAC | 0.852 RPM ratio (pull-down/input)
14 | GATGATTGTTCTCCCAGCTGATGAATTAGAAATCTCGAGTAAACAAATTTTCCTAATCTTTCTGTTCAAGCGCCATCTAC | 0.926 RPM ratio (pull-down/input)
15 | GATGATTGTTCTCCCAGCTGATGAATTACGCCAATCGAGTAAACAAATTTTCCTAATCTTTCTGTTCAAGCGCCATCTAC | 1.06 RPM ratio (pull-down/input)
16 | GATGATTGTTCTCCCAGCTGATGAATTATGGGAATCGAGTAAACAAATTTTCCTAATCTTTCTGTTCAAGCGCCATCTAC | 0.965 RPM ratio (pull-down/input)
17 | GATGATTGTTCTCCCAGCTGATGAATTTCACACATCGAGTAAACAAATTTTCCTAATCTTTCTGTTCAAGCGCCATCTAC | 1.02 RPM ratio (pull-down/input)
18 | GATGATTGTTCTCCCAGCTGATGAATTGAAAGAATCGAGTAAACAAATTTTCCTAATCTTTCTGTTCAAGCGCCATCTAC | 0.968 RPM ratio (pull-down/input)
19 | GATGATTGTTCTCCCAGCTGATGAATTGTCTACCTCGAGTAAACAAATTTTCCTAATCTTTCTGTTCAAGCGCCATCTAC | 1.01 RPM ratio (pull-down/input)
20 | GATGATTGTTCTCCCAGCTGATGAATTACGACACTCGAGTAAACAAATTTTCCTAATCTTTCTGTTCAAGCGCCATCTAC | 1.01 RPM ratio (pull-down/input)

Row | Sequence | binding signal
21 | GATGATTGTTCTCCCAGCTGATGAATTCACGATCTCGAGTAAACAAATTTTCCTAATCTTTCTGTTCAAGCGCCATCTAC | 0.84 RPM ratio (pull-down/input)
22 | GATGATTGTTCTCCCAGCTGATGAATTGCTTCGTTCGAGTAAACAAATTTTCCTAATCTTTCTGTTCAAGCGCCATCTAC | 1.03 RPM ratio (pull-down/input)
23 | GATGATTGTTCTCCCAGCTGATGAATTCTTGTTCTCGAGTAAACAAATTTTCCTAATCTTTCTGTTCAAGCGCCATCTAC | 0.854 RPM ratio (pull-down/input)
24 | GATGATTGTTCTCCCAGCTGATGAATTTGGCTGCTCGAGTAAACAAATTTTCCTAATCTTTCTGTTCAAGCGCCATCTAC | 0.86 RPM ratio (pull-down/input)
25 | GATGATTGTTCTCCCAGCTGATGAATTATCGGGTTCGAGTAAACAAATTTTCCTAATCTTTCTGTTCAAGCGCCATCTAC | 0.892 RPM ratio (pull-down/input)
26 | GATGATTGTTCTCCCAGCTGATGAATTCCCGTAATCGAGTAAACAAATTTTCCTAATCTTTCTGTTCAAGCGCCATCTAC | 1.19 RPM ratio (pull-down/input)
27 | GATGATTGTTCTCCCAGCTGATGAATTTATTCTATCGAGTAAACAAATTTTCCTAATCTTTCTGTTCAAGCGCCATCTAC | 1.16 RPM ratio (pull-down/input)
28 | GATGATTGTTCTCCCAGCTGATGAATTCGGAACTTCGAGTAAACAAATTTTCCTAATCTTTCTGTTCAAGCGCCATCTAC | 0.797 RPM ratio (pull-down/input)
29 | GATGATTGTTCTCCCAGCTGATGAATTCATTGTATCGAGTAAACAAATTTTCCTAATCTTTCTGTTCAAGCGCCATCTAC | 1.18 RPM ratio (pull-down/input)
30 | GATGATTGTTCTCCCAGCTGATGAATTAGAAATATCGAGTAAACAAATTTTCCTAATCTTTCTGTTCAAGCGCCATCTAC | 0.961 RPM ratio (pull-down/input)
31 | GATGATTGTTCTCCCAGCTGATGAATTACACCAATCGAGTAAACAAATTTTCCTAATCTTTCTGTTCAAGCGCCATCTAC | 1.34 RPM ratio (pull-down/input)
32 | GATGATTGTTCTCCCAGCTGATGAATTTATAGCGTCGAGTAAACAAATTTTCCTAATCTTTCTGTTCAAGCGCCATCTAC | 1.02 RPM ratio (pull-down/input)
33 | GATGATTGTTCTCCCAGCTGATGAATTCTCGGTGTCGAGTAAACAAATTTTCCTAATCTTTCTGTTCAAGCGCCATCTAC | 0.871 RPM ratio (pull-down/input)
34 | GATGATTGTTCTCCCAGCTGATGAATTTCTGAACTCGAGTAAACAAATTTTCCTAATCTTTCTGTTCAAGCGCCATCTAC | 0.856 RPM ratio (pull-down/input)
35 | GATGATTGTTCTCCCAGCTGATGAATTCCATTCATCGAGTAAACAAATTTTCCTAATCTTTCTGTTCAAGCGCCATCTAC | 0.873 RPM ratio (pull-down/input)
36 | GATGATTGTTCTCCCAGCTGATGAATTCAACAGGTCGAGTAAACAAATTTTCCTAATCTTTCTGTTCAAGCGCCATCTAC | 0.93 RPM ratio (pull-down/input)
37 | GATGATTGTTCTCCCAGCTGATGAATTAATTGATTCGAGTAAACAAATTTTCCTAATCTTTCTGTTCAAGCGCCATCTAC | 1.04 RPM ratio (pull-down/input)
38 | GATGATTGTTCTCCCAGCTGATGAATTCCCCCACTCGAGTAAACAAATTTTCCTAATCTTTCTGTTCAAGCGCCATCTAC | 0.853 RPM ratio (pull-down/input)
39 | GATGATTGTTCTCCCAGCTGATGAATTGCTGTCTTCGAGTAAACAAATTTTCCTAATCTTTCTGTTCAAGCGCCATCTAC | 1.21 RPM ratio (pull-down/input)
40 | GATGATTGTTCTCCCAGCTGATGAATTAGGACGGTCGAGTAAACAAATTTTCCTAATCTTTCTGTTCAAGCGCCATCTAC | 0.825 RPM ratio (pull-down/input)
